In the supplement of paper PMC3334620:
Over roughly 33,000 sequences, “E-score (-0.5 to 0.5)” has its median near -0.054; the highest 2% begin near 0.39. This is one part of the list.

These sequences were tested against Ylr278c (UniProt Q05854) (assay: PBM E-score (8-mer binding enrichment) (E-score (-0.5 to 0.5)); higher = stronger / more preferred TF binding; most listed sequences are background and not binding sites). Details: protein concentration: 200 nM; construct: GST-DNA-binding domain.
Experimental: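 Universal 'all 10-mer' protein binding microarrays (Agilent AMADID 015681) probed with GST-tagged S. cerevisiae TFs (full-length or DBD) made by in vitro transcription/translation (PURExpress), about 100-200 nM. Bound TF was detected with fluorescent anti-GST. Each ungapped 8-mer (which stands for itself and its reverse complement) is scored by the PBM enrichment score (E-score), a modified Wilcoxon-Mann-Whitney statistic from -0.5 to +0.5, computed with the Universal PBM Analysis Suite. Scale: above 0.35 generally sequence-specific binding.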

Sequence	PBM E-score
ACTTCTCC	0.283
ATACCTAT	-0.174
CAAGCCTG	-0.242
GCGTTCAC	0.011
ATGTTGCC	-0.036
ACTACAGT	-0.22
TCATGTAA	-0.135
AGCGGCCC	0.0789
AAATGCGT	-0.0671
GAGTCTGA	-0.147
ATTTGTAC	-0.138
CATAGACA	-0.148
AAGATTAA	-0.069
GAAACCTA	-0.184
GACCCTTA	-0.173
CATTCCTC	0.0106
AAGCTACA	-0.184
ATGCTTAA	0.0745
CATCACGC	0.0744
AATTGTAA	-0.172
ACAGGGAA	-0.118
AGCCCAGC	-0.0788
AGCTAATC	-0.0907
TAGCCAGA	-0.21
GTCCACGA	-0.17

Sequence	PBM E-score
GGAGCTAC	0.169
ACGCTCGC	-0.194
AGAGTCTG	-0.336
TGTTACAA	-0.0929
GTACTCGA	-0.147
GAGATCTA	-0.177
CATATGAA	-0.00398
GCCCACCA	-0.21
CCCAAGCG	0.0327
AACTTGTA	-0.0794
ATTAACAC	0.0305
CTTTGGTA	-0.0286
AGGAACGG	0.0984
CTTAAAGA	-0.114
CATAACAG	-0.328
GAGTGTCA	-0.0234
AGAGTGCA	-0.142
TAGACGAA	-0.3
AAGAACCC	-0.0398
ACCATAAA	-0.0424
CCCAATAC	0.00541
GGAGTGTA	0.127
ATTTACCC	0.00209
CAGGGTCC	-0.0196
CAGATTAC	-0.0164

Sequence	PBM E-score
ACGATGTA	-0.201
CGATGATA	0.0943
CGAGCGTA	-0.0554
CATAGCTC	-0.0775
ACAGTGGA	-0.077
CTTAATAC	-0.135
ACCTCTCC	-0.00805
AAAGATCG	-0.121
CGTCTCAG	-0.155
GAAGGGAA	-0.124
AACTCGAG	-0.121
GAATTTGA	0.116
TAAGACTA	-0.2
GAGAATCC	0.147
CAGGGAAG	-0.123
CGGAGAAC	0.445
TACGCTCA	-0.223
GCGTCCAA	-0.175
GTGATAAA	-0.122
TGGCGAAA	-0.00886
TAGCACAA	-0.115
CTTCAATA	-0.0693
AACAGTGA	-0.066
GTACAGTA	-0.0759
AGTCACAG	-0.326

Sequence	PBM E-score
CCCCCGCA	0.0425
CAGAAAGG	-0.125
TTACGCAA	-0.0173
CTGTGTTC	-0.0708
AACGCATA	-0.003
CAATACCC	0.176
TCCGAAGA	0.433
CGATGGCA	0.0143
CGCAATAG	-0.0881
ACCGACGG	0.323
ATCCGCAT	0.263
CTAGAACC	-0.119
GGGCCGAA	0.198
AAACTTGT	-0.129
CGATCTCA	-0.00974
CCCCGAGG	0.245
CGGTTAGA	0.00791
AACGCCCG	0.279
CATGAAGC	0.116
ACGTTCTG	-0.141
ACATTGCA	-0.0533
TATGTTGA	-0.0826
CCAGGACA	-0.0615
GACGTCCA	0.0178
GATGGTCC	0.103

Sequence	PBM E-score
ACGCAATA	-0.0667
GCTCGAAC	-0.194
AGTCAAGG	-0.251
ACACTTAC	-0.112
GGCTCCAC	-0.151
GCGAGGAA	0.198
AACAGAGG	-0.192
ACTCACAC	-0.0834
GTCCAAAC	-0.168
GTACCATA	-0.222
AGAGGTTG	-0.0914
AAATAGAC	0.00956
CGTACGTC	-0.182
ATAAAGCG	0.0368
AGTTCGCG	0.133
AAGCAACA	-0.135
CAGGGTGC	-0.0626
CCGTCCGC	0.326
GATGAGAA	-0.264
CTTCTACA	-0.212
CGCCAACA	0.00656
CTTGTAAA	-0.0236
GCAGGGAA	0.0339
AAAACCGT	-0.113
AGCTTCCT	-0.143

Sequence	PBM E-score
AATCGGAA	0.416
GGGGAGGA	0.0353
AGTAATGG	-0.146
ATGGTTGG	0.00201
AGGACCCG	0.158
ATTTCGTG	-0.131
GAACCTTA	0.147
CTAACAGC	0.0442
ATAGCCGA	0.181
TCGTCCCA	-0.165
AACGCAGT	-0.0888
ATTTGTAA	-0.112
CAGCCCTA	-0.00615
AATATATA	0.0198
GGGTTCAC	0.0617
ATGCTGTA	-0.185
GAGTATCC	0.123
CATAGACC	-0.0979
GGGATCTA	0.0224
ATGATCAG	-0.218
GAGTATCA	0.0352
TCGCATCA	0.145
CAGTAGTA	-0.231
ATGTGAAA	-0.178
ACCACCAA	-0.0184

Sequence	PBM E-score
AAGTGCTC	-0.223
CTCAGTGA	-0.34
GCTGTAGA	-0.161
ACAATTCT	-0.27
CGCGTTGA	-0.089
CCGAAGAC	0.259
CTCTAGCC	-0.102
ATCCAGGC	-0.16
GGAAGCCC	0.216
CTCGCCGC	0.13
CGTAGAGA	-0.28
AACCCGAG	0.264
CGATATAC	0.156
GGTCCCTA	-0.146
ACCGGAGA	0.475
GCCCTCAA	-0.106
CTGTCGTA	-0.124
GTAATGAC	-0.0287
GTTTTACA	-0.0511
CTCTATTC	0.0786
ATCCACGC	-0.225
ACGTGCTA	-0.242
CACTGCGA	-0.0532
CTTCTCAA	-0.149
AGGAGACA	-0.0751

Sequence	PBM E-score
CTGGGTTC	-0.0115
GTAAGAGA	-0.19
ACCTTTAT	-0.214
GCGTACCC	-0.0941
CAATTCGC	0.131
GCATCGGC	0.308
GGCGGAGA	0.444
GTCTAAGA	-0.118
GTAGGTTA	-0.123
GGCCCCGA	0.234
GAACCAGA	-0.267
AGATAGAG	-0.145
CAAGTTCC	0.221
ACGCATCA	-0.0248
CAGTTGAA	-0.229
ACTGTAAC	-0.204
AAGTAGCG	-0.155
CGGTCAAG	0.189
AGTTTTAC	0.00603
CTTGACCA	-0.396
CGCGTTGC	0.122
ATGGCACC	0.014
CGGGTGCC	0.154
TGTTTGAA	-0.199
AGAATTCG	-0.0246

Sequence	PBM E-score
GGGGGTCA	-0.159
ACGTGGTG	-0.073
CGGCTAAA	0.236
GACGCGTC	-0.292
AAAAAGAT	-0.0389
AGGAAGTA	0.126
CTCCCCGC	0.288
AACATGCG	-0.129
CCTAACGA	-0.0685
GTTCCGTA	0.264
ACTAGAAG	-0.121
AGGATGCG	-0.177
AAACACTA	-0.182
GTATACCA	-0.227
AAAAGGGA	-0.277
AGGCGCCC	-0.132
CGACAGTA	0.103
AACACACC	0.0611
ATATTGCC	0.0162
ACAAAGTA	-0.127
AGTACATC	-0.137
ACGCCCAA	0.00358
CGGCTGGA	0.0769
AGTAATAC	0.0413
AAAGTAAC	-0.00452

Sequence	PBM E-score
ACCTCTAG	-0.0549
AGTGAATA	-0.026
GGCGCAAC	0.131
GTGCACTA	-0.0122
AAGGAAGG	-0.305
GCTGTCAA	-0.0973
TCAGAACA	-0.104
CACTAGTC	-0.113
CCCACGGG	0.00912
ACCAGTGC	-0.264
AAGTGAGT	-0.165
CGGTAAGA	0.115
CAAGCTCC	0.168
AACTGTGC	-0.198
CATTGCGC	-0.0283
GGCACCAC	-0.00963
AATTCCCT	-0.103
TAAGTATA	-0.0135
ATAGACCA	-0.224
TCCCCAGA	-0.187
ATCACCGA	0.204
GCGAGTAA	0.0471
CCCTGTCA	-0.228
GGTTGTTA	-0.0132
CGAACCAG	-0.0147

Sequence	PBM E-score
AATGCAAT	-0.294
AGGGCAGA	-0.29
ACCCTGGA	-0.201
TCTACCAA	-0.209
ATCGAGCG	0.109
GATCTACA	-0.0198
ACAGACCT	-0.106
ACGGTTGA	-0.187
AGTACCCG	-0.0434
AAAATTCA	0.0225
CAAAGGTC	-0.224
AATCGGAT	0.384
CCAGTCGA	-0.198
GGGAACGA	0.025
AGTCTTCG	-0.22
CAGTGGGA	-0.0876
CATCAAAC	-0.0628
GGGTTGGA	0.0191
CCCACAAA	-0.0205
CTTACGGA	0.166
CGGAGAAG	0.453
AAATAGTG	-0.154
AGTAAGAT	-0.0177
AACTCTCA	-0.214
CTCCTGGC	0.0905

Sequence	PBM E-score
GACTGGAA	-0.161
CAGTGTTC	-0.0124
AAATCTGT	-0.0526
AAAATAGT	-0.187
ATCTCGTC	0.0476
CCACTGCG	0.0129
AGCCCAAG	-0.102
GAGCGGCC	0.199
ACAAGCGA	-0.0176
CCTGATAC	-0.0837
GATCTCTA	-0.191
CCTTCGAC	-0.313
ACTTAACG	-0.202
CACGCTGC	-0.0562
CAAGAGGC	-0.161
AGGTCCAC	-0.0934
AAAGCGGT	0.115
ATGTTCGC	-0.126
CACCTATG	-0.0846
ACCTGTCA	-0.126
GCGTGCTA	-0.224
CTGCTCTA	-0.197
ATAGATGG	-0.132
CATGTTCC	0.0682
ACACCTAG	-0.13

Sequence	PBM E-score
CGGCACGA	0.15
CAATTATA	-0.207
CGCCTTTA	-0.0616
CGGTAGTA	0.098
GCTTGTGA	-0.308
CCAGTCTA	-0.232
GCTGCCTA	-0.0677
ACGGGTGC	-0.0805
AAATCTAC	-0.00444
AATATATG	0.0736
AGTACTCC	0.279
CGTCAGCA	-0.173
ACACGGGC	0.161
AATTTTCT	0.0945
AACAGTCT	-0.244
GATCTAAC	0.00221
ATAAATCC	0.228
AACAAAGT	0.106
CCCGATTC	0.146
ATTTGAAC	0.0663
ACACTGAC	-0.0733
CCCGCCAC	0.204
AAAGGGCG	-0.0539
TACGCCAA	-0.256
CTTCGTCA	-0.109

Sequence	PBM E-score
CGATACAC	-0.145
CGCCGAGA	0.304
ACCGTTCG	0.0396
CATCAGCA	-0.103
CGTGGCTA	-0.172
GATCCATC	0.219
CATTGGGA	-0.198
AATCAATA	-0.0399
ACGAAGAC	-0.11
CGCTCTGA	-0.0769
CCCCGGTC	0.368
CCCCTCCG	0.342
AACCAATA	0.00861
AAGTGTTG	-0.00324
AACGAACC	-0.0335
TACAGTCA	-0.241
TGCCCCCA	-0.239
CCAGTTGC	0.00748
ATCATTAA	0.0887
